Measured values published in the supplement of paper PMC10126150.
Values marked as one replicate rest on one cluster of the flow cell; about a third of the high ones do not repeat.

These sequences were tested on ATP (assay: switch fluorescence ratio, 500 uM ATP over buffer (Cy3 cluster intensity, sum of 5 cycles each) (fold (ratio)); higher = stronger signal-on switching upon ATP binding; sequences stand for … in TCGTCGGCAGCGTCAGATGTGTATAAGAGACAGTTTTTTTTTTTTTTTTTTTTTTTTT…TC). Settings: aptamer strand: ATP DNA aptamer (quencher-CACCTGGGGGAGTATTGCGGAGGAAGG + anchor), 100 nM annealed; ATP concentration: 500 uM; one replicate.
Summary of the method: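 Values give the fluorescence ratio for each switch-domain sequence, averaged from per-cluster ratios of summed target-cycle to summed buffer-cycle Cy3 intensity. The Cy3-labelled switching-strand clusters sat on a modified Illumina MiSeq flow-cell, were annealed to 100 nM quencher-labelled ATP aptamer, and were imaged in selection buffer, then after 15 min with 500 uM ATP at 22 °C. Five cycles ran with NaOH stripping and re-annealing between them, and clusters outside 100-1000 RFU were excluded.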
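Also: ATP exposure 15 min at 22 °C before imaging.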

Q: How did the switch fluorescence ratio turn out when CGGATGATTT was run?
A: 0.988

Q: With AGTGCCTTT as the sequence, how does the switch fluorescence ratio read?
A: 0.996

Q: How did the switch fluorescence ratio turn out when GCTTAAAGGT was run?
A: 1.02

Q: CGCGTCTGCA was tested. Which switch fluorescence ratio did it give?
A: 1.02

Q: Which switch fluorescence ratio does the source give for GTTTGATTCA here?
A: 0.999

Q: How did the switch fluorescence ratio turn out when TAGCGCCTTT was run?
A: 0.986

Q: CCAATCGAGG was tested. Which switch fluorescence ratio did it give?
A: 1.02

Q: Which switch fluorescence ratio does the source give for ATATATTATC here?
A: 0.975

Q: GAGAAATTTG was tested. Which switch fluorescence ratio did it give?
A: 1.02

Q: With CCGATTATCA as the sequence, how does the switch fluorescence ratio read?
A: 1

Q: For TCGCTATCGG, which switch fluorescence ratio is on record?
A: 0.995

Q: For GAAACTTCAG, which switch fluorescence ratio is on record?
A: 0.973

Q: Which switch fluorescence ratio does the source give for CGACAGGTCA here?
A: 1.04

Q: How did the switch fluorescence ratio turn out when CCCCTAATCG was run?
A: 1.02

Q: How did the switch fluorescence ratio turn out when TATCCAAGG was run?
A: 1.01

Q: TTTAGTACT was tested. Which switch fluorescence ratio did it give?
A: 0.946

Q: GTGCTTGTGG was tested. Which switch fluorescence ratio did it give?
A: 1

Q: AATGATTCTG was tested. Which switch fluorescence ratio did it give?
A: 1.01

Q: For TGTAACAGCC, which switch fluorescence ratio is on record?
A: 2.29

Q: For TAAGAACTCC, which switch fluorescence ratio is on record?
A: 1.07

Q: GTCGGGTGTC was tested. Which switch fluorescence ratio did it give?
A: 1.03

Q: How did the switch fluorescence ratio turn out when AGTAGGCAGG was run?
A: 1.04

Q: How did the switch fluorescence ratio turn out when TACGGGTCAA was run?
A: 1.03

Q: With GTCGTCGCAT as the sequence, how does the switch fluorescence ratio read?
A: 1

Q: Which switch fluorescence ratio does the source give for ATAGACTACA here?
A: 1.07

Q: Which switch fluorescence ratio does the source give for GACGTAGGTA here?
A: 1.04

Q: TGGGGAGGTC was tested. Which switch fluorescence ratio did it give?
A: 1

Q: For CCTCGCGGAG, which switch fluorescence ratio is on record?
A: 2.21

Q: How did the switch fluorescence ratio turn out when ACGAATCCAC was run?
A: 1.1

Q: How did the switch fluorescence ratio turn out when ATCTGTTACA was run?
A: 1.01

Q: Which switch fluorescence ratio does the source give for CTTCTTCGGG here?
A: 1.05

Q: How did the switch fluorescence ratio turn out when GAGAAAAAAA was run?
A: 0.98

Q: With ACTGTGGACT as the sequence, how does the switch fluorescence ratio read?
A: 1.04

Q: How did the switch fluorescence ratio turn out when GGTTGCGCCT was run?
A: 0.981

Q: With ACACATTGGC as the sequence, how does the switch fluorescence ratio read?
A: 1

Q: With CTTATGACGA as the sequence, how does the switch fluorescence ratio read?
A: 1.01

Q: For GGACTATAAA, which switch fluorescence ratio is on record?
A: 1.05

Q: GTATAAGCGT was tested. Which switch fluorescence ratio did it give?
A: 1.04

Q: Which switch fluorescence ratio does the source give for GTAGTTAAAT here?
A: 0.98

Q: How did the switch fluorescence ratio turn out when TGCCTTAGTT was run?
A: 1

Q: With TTGCTTATGA as the sequence, how does the switch fluorescence ratio read?
A: 0.954

Q: How did the switch fluorescence ratio turn out when CGCTACTCAA was run?
A: 3.13

Q: Which switch fluorescence ratio does the source give for CGAGGCGCGG here?
A: 0.983

Q: For TACTTGTGAG, which switch fluorescence ratio is on record?
A: 0.993

Q: For GAACGCTAGT, which switch fluorescence ratio is on record?
A: 0.931

Q: With AGCGCAGTGG as the sequence, how does the switch fluorescence ratio read?
A: 1

Q: How did the switch fluorescence ratio turn out when TACCAGAGGT was run?
A: 0.985

Q: For CACAATGCCA, which switch fluorescence ratio is on record?
A: 1.02

Q: For CATACAAGGT, which switch fluorescence ratio is on record?
A: 0.993

Q: For CAGTATCGTT, which switch fluorescence ratio is on record?
A: 0.991

Q: With GTGTAGGGGG as the sequence, how does the switch fluorescence ratio read?
A: 0.987

Q: With GGTATTTTCA as the sequence, how does the switch fluorescence ratio read?
A: 1.03

Q: Which switch fluorescence ratio does the source give for CCGCGGGTGG here?
A: 1.05

Q: Which switch fluorescence ratio does the source give for CTGGGCGATT here?
A: 1

Q: How did the switch fluorescence ratio turn out when TGCCATGAGC was run?
A: 0.974

Q: Which switch fluorescence ratio does the source give for AGGGAGGACA here?
A: 0.993

Q: TTCTAGTCTG was tested. Which switch fluorescence ratio did it give?
A: 1.01

Q: AATGGCATTG was tested. Which switch fluorescence ratio did it give?
A: 0.996

Q: With TAGGCACGA as the sequence, how does the switch fluorescence ratio read?
A: 1.03

Q: How did the switch fluorescence ratio turn out when CTTAGAGAAA was run?
A: 0.983

Q: Which switch fluorescence ratio does the source give for TCCCTCTGCT here?
A: 1.39

Q: Which switch fluorescence ratio does the source give for CATCTGCCGG here?
A: 1.23

Q: TTGCATTGCA was tested. Which switch fluorescence ratio did it give?
A: 0.977

Q: How did the switch fluorescence ratio turn out when TATTGTCATC was run?
A: 0.991

Q: With TCGGGTGAT as the sequence, how does the switch fluorescence ratio read?
A: 1.03

Q: CATATCAACC was tested. Which switch fluorescence ratio did it give?
A: 1.05

Q: Which switch fluorescence ratio does the source give for AGACGCTATT here?
A: 1.2

Q: For ATTATCAGCT, which switch fluorescence ratio is on record?
A: 1.03

Q: For GCAGAGATCG, which switch fluorescence ratio is on record?
A: 0.944

Q: How did the switch fluorescence ratio turn out when CTGCAACTAT was run?
A: 2.47

Q: TGCATGGGGC was tested. Which switch fluorescence ratio did it give?
A: 1.01

Q: With TTGCGACTA as the sequence, how does the switch fluorescence ratio read?
A: 0.992

Q: For TCTCACAATG, which switch fluorescence ratio is on record?
A: 1.18

Q: For AACAGGTCCG, which switch fluorescence ratio is on record?
A: 1.23

Q: How did the switch fluorescence ratio turn out when GCTTTCGTTT was run?
A: 0.966

Q: Which switch fluorescence ratio does the source give for ACGGAAATGG here?
A: 1.01

Q: With GAGGCCAATG as the sequence, how does the switch fluorescence ratio read?
A: 1.01

Q: How did the switch fluorescence ratio turn out when GCAGGGTTGG was run?
A: 1.01

Q: For TCTGTTCTTC, which switch fluorescence ratio is on record?
A: 1.02

Q: Which switch fluorescence ratio does the source give for AATATCCCCT here?
A: 1.08

Q: TTTGGTGCAA was tested. Which switch fluorescence ratio did it give?
A: 1.12

Q: Which switch fluorescence ratio does the source give for CAGCGGCGAG here?
A: 1.01

Q: For CGAGAGATGA, which switch fluorescence ratio is on record?
A: 1.01

Q: For ACAGGTACGG, which switch fluorescence ratio is on record?
A: 1.09

Q: How did the switch fluorescence ratio turn out when TTGGGAATCT was run?
A: 1

Q: Which switch fluorescence ratio does the source give for GCTCTCTAT here?
A: 1.04

Q: How did the switch fluorescence ratio turn out when TTGGTGCCGA was run?
A: 0.975

Q: With TTTGACACGG as the sequence, how does the switch fluorescence ratio read?
A: 1.02

Q: GTTTGTATGC was tested. Which switch fluorescence ratio did it give?
A: 0.955

Q: GGGGTAGTAA was tested. Which switch fluorescence ratio did it give?
A: 0.986

Q: Which switch fluorescence ratio does the source give for TAAGGGACTC here?
A: 1.01

Q: GGTAAGTCTG was tested. Which switch fluorescence ratio did it give?
A: 0.973

Q: How did the switch fluorescence ratio turn out when AGGCCCCTGT was run?
A: 1

Q: TTACTTTGCC was tested. Which switch fluorescence ratio did it give?
A: 1.04

Q: Which switch fluorescence ratio does the source give for GTCGTTGTCT here?
A: 1.04

Q: GGGACAGGGT was tested. Which switch fluorescence ratio did it give?
A: 1

Q: For GCCCGGGATC, which switch fluorescence ratio is on record?
A: 1.06

Q: For TGATTGTAAG, which switch fluorescence ratio is on record?
A: 1.01

Q: How did the switch fluorescence ratio turn out when TCCTACGATT was run?
A: 1.8

Q: GCGGCTAGTG was tested. Which switch fluorescence ratio did it give?
A: 0.966
